Assay results as given in publication PMC13161475.
These are yes or no findings as the source states them, for the method shown. For part of these data: Binding seen in cells or lysates may run through a third protein. Some results given as binding are weak or reduced against the parent protein; the word gives no strength.

Amino acid sequences for entries named in this document (tags omitted). A change or cut given only in a name is not applied to a line headed by its entry. Chains listed by the source or under a name are the forms on record and can include a tag or linker.
V5-tagged BCL7A-Δ20, expressed in HEK293T (Q4VC05, form named): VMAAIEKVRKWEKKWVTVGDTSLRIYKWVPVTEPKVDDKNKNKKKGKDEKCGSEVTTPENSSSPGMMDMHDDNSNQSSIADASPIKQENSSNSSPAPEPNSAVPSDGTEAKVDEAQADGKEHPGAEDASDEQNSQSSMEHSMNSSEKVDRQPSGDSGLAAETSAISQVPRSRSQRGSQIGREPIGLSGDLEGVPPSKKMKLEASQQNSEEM
V5-tagged BCL7A WT (isoform a), expressed in HEK293T (Q4VC05, form named): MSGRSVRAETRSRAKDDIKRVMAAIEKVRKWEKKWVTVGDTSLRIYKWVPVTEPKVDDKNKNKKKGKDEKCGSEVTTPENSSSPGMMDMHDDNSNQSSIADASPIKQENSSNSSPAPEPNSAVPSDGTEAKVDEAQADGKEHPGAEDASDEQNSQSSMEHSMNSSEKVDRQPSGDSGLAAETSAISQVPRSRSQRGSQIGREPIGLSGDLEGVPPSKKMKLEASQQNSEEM
V5-tagged BCL7A-Δ31, expressed in OCI-LY1 (Q4VC05, form named): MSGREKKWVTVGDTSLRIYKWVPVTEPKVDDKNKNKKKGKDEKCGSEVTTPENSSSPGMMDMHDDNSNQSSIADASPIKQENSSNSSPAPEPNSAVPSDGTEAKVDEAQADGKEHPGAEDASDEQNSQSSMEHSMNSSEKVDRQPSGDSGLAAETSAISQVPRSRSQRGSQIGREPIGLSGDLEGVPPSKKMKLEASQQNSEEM
UniProt Q92785: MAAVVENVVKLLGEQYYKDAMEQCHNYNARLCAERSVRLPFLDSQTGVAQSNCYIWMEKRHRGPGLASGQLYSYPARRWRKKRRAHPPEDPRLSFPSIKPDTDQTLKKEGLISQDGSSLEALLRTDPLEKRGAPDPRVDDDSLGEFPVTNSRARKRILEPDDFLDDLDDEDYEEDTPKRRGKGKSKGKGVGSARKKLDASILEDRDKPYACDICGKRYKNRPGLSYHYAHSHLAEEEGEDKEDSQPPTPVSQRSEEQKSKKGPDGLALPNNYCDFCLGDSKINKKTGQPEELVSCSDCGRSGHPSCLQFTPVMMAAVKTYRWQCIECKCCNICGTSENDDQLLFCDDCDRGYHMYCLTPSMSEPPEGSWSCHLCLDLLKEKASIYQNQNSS
UniProt Q9H8M2: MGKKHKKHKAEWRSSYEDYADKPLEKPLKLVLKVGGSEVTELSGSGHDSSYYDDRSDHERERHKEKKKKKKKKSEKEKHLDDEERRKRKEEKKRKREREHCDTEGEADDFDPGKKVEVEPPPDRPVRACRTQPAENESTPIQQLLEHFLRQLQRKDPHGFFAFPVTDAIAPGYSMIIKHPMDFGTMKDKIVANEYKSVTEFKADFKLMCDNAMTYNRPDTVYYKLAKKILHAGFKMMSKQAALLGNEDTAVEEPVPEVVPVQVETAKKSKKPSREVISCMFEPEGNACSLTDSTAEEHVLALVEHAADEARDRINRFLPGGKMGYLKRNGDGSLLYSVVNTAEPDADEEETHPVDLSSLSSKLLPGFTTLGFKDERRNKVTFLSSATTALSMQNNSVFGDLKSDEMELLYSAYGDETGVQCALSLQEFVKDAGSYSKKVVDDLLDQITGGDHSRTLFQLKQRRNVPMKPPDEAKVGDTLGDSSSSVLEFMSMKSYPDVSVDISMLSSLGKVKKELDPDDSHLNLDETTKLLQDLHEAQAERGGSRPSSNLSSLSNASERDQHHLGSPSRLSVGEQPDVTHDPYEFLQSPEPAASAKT
UniProt P51532: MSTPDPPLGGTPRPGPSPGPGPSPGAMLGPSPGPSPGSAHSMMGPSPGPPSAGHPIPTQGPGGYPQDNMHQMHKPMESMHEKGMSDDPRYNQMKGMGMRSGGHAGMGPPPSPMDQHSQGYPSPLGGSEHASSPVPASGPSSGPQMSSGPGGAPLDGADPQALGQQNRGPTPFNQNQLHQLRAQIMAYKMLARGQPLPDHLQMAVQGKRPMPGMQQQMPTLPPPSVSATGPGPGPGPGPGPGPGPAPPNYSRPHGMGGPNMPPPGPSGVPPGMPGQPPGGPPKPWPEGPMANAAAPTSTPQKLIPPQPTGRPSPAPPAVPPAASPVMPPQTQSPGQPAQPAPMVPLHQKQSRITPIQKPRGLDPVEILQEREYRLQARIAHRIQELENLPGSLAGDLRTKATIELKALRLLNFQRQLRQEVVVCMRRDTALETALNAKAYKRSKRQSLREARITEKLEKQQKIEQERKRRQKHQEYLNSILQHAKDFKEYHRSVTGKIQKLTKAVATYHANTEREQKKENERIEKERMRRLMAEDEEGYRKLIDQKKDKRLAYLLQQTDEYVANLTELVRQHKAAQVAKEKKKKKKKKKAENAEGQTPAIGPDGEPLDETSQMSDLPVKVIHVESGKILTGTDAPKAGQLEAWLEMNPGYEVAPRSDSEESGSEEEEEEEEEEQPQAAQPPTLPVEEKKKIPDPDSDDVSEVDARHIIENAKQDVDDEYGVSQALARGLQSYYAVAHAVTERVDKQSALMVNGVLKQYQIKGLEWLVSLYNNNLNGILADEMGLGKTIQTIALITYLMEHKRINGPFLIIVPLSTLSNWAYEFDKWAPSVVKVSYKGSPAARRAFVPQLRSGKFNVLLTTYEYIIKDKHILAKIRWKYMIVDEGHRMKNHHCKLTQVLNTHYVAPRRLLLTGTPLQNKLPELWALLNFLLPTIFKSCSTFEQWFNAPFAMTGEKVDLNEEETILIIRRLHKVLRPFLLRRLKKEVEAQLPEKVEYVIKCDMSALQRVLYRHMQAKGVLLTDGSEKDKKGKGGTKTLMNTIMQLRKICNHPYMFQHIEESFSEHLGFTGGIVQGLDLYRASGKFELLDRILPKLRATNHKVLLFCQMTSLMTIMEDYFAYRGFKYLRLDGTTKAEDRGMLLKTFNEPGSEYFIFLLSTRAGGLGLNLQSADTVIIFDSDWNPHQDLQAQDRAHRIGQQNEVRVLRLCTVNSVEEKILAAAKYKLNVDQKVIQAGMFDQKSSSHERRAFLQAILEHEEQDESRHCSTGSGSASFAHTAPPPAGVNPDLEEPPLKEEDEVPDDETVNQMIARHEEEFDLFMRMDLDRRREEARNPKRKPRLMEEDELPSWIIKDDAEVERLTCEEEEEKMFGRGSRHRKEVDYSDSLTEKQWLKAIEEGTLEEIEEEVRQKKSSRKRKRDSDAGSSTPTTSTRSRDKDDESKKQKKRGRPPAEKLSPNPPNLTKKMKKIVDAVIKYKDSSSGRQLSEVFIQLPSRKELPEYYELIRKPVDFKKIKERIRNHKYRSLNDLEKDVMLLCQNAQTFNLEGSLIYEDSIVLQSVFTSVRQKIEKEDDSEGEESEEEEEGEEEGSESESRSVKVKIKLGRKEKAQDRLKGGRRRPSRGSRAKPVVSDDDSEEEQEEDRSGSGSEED
UniProt Q12824: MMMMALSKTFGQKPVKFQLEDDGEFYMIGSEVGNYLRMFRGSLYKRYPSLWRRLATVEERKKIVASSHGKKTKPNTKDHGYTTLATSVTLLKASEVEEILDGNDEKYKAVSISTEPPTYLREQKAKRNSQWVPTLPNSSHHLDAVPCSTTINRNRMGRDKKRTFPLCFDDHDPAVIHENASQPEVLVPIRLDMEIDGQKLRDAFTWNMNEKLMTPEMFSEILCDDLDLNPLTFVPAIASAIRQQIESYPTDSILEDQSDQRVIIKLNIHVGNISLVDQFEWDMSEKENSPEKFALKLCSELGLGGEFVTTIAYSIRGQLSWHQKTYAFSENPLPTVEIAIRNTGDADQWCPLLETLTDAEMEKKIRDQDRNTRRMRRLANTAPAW

Legend:
[1] = biological target: V5-tagged BCL7A-Δ20, expressed in HEK293T (human) (UniProt Q4VC05); assay: co-IP; anti-V5 immunoprecipitation from HEK293T cells expressing V5-tagged BCL7A WT, truncations or point mutants; endogenous hSWI/SNF subunits detected (Figures 1D, 7C)
[2] = biological target: V5-tagged BCL7A WT (isoform a), expressed in HEK293T (human) (UniProt Q4VC05); assay: as above
[3] = biological target: V5-tagged BCL7A WT, expressed in OCI-LY1 (human) (UniProt Q4VC05); assay: co-IP; anti-V5 immunoprecipitation from OCI-LY1 cells expressing V5-tagged BCL7A WT, truncations or point mutants; endogenous hSWI/SNF subunits detected (Figures 4B, 7D)
[4] = biological target: V5-tagged BCL7A-Δ31, expressed in OCI-LY1 (human) (UniProt Q4VC05); assay: as above
[5] = biological target: V5-tagged BCL7A-Δ20, expressed in OCI-LY1 (human) (UniProt Q4VC05); assay: as above
[6] = biological target: V5-tagged BCL7A-Δ20, expressed in HEK293T (human) (UniProt Q4VC05); assay: V5-FLAG tandem affinity purification; cBAF isolated from HEK293T (WT or SMARCB1 CTD-deleted) co-overexpressing FLAG-DPF2 and V5-BCL7A WT or Δ20; Coomassie-stained SDS-PAGE, mass spectrometry, Western blot (Figures 1F, 1G, 3C, 3D)
[7] = biological target: V5-tagged BCL7A WT (isoform a), expressed in HEK293T (human) (UniProt Q4VC05); assay: as above
FLAG-tagged DPF2 (human) = FLAG-tagged DPF2 (human) (UniProt Q92785); assay: as above

Substance | binding [3] | binding [4] | binding [5] | binding [6] | binding [7] | also measured
BRD9, endogenous in HEK293T (from UniProt Q9H8M2 1-597) |  |  |  |  |  | binding [1]: binds; binding [2]: binds
BRD9, endogenous in OCI-LY1 (from UniProt Q9H8M2 1-597) | binds | no binding | binds |  |  | 
BRG1, endogenous in HEK293T (from UniProt P51532 1-1647) |  |  |  | binds | binds | binding (FLAG-tagged DPF2 (human)): binds
BRG1, endogenous in OCI-LY1 (from UniProt P51532 1-1647) | binds | binds weakly | binds |  |  | 
FLAG-tagged DPF2 (from UniProt Q92785 1-391) |  |  |  | binds | binds | 
SMARCB1, endogenous in HEK293T (from UniProt Q12824 1-385) |  |  |  | binds | binds | 
